Reference: publication PMC3296622
Like-named read-outs stand apart in the source and are kept apart here. No constants are given. Whether binding was seen depends on the method and setting. Binding seen in cells or lysates may run through a third protein. Some entries that bind do so weakly or less than the wild type. Where a sequence is shown, tags or fusion partners need not be part of it. Blank lines part the entries; values can stand above or below the molecule they belong to.

The chains behind the UniProt entries cited, without tags or fusion partners. Residues count along the entry.
UniProt Q9QYP1, residues 21-1723: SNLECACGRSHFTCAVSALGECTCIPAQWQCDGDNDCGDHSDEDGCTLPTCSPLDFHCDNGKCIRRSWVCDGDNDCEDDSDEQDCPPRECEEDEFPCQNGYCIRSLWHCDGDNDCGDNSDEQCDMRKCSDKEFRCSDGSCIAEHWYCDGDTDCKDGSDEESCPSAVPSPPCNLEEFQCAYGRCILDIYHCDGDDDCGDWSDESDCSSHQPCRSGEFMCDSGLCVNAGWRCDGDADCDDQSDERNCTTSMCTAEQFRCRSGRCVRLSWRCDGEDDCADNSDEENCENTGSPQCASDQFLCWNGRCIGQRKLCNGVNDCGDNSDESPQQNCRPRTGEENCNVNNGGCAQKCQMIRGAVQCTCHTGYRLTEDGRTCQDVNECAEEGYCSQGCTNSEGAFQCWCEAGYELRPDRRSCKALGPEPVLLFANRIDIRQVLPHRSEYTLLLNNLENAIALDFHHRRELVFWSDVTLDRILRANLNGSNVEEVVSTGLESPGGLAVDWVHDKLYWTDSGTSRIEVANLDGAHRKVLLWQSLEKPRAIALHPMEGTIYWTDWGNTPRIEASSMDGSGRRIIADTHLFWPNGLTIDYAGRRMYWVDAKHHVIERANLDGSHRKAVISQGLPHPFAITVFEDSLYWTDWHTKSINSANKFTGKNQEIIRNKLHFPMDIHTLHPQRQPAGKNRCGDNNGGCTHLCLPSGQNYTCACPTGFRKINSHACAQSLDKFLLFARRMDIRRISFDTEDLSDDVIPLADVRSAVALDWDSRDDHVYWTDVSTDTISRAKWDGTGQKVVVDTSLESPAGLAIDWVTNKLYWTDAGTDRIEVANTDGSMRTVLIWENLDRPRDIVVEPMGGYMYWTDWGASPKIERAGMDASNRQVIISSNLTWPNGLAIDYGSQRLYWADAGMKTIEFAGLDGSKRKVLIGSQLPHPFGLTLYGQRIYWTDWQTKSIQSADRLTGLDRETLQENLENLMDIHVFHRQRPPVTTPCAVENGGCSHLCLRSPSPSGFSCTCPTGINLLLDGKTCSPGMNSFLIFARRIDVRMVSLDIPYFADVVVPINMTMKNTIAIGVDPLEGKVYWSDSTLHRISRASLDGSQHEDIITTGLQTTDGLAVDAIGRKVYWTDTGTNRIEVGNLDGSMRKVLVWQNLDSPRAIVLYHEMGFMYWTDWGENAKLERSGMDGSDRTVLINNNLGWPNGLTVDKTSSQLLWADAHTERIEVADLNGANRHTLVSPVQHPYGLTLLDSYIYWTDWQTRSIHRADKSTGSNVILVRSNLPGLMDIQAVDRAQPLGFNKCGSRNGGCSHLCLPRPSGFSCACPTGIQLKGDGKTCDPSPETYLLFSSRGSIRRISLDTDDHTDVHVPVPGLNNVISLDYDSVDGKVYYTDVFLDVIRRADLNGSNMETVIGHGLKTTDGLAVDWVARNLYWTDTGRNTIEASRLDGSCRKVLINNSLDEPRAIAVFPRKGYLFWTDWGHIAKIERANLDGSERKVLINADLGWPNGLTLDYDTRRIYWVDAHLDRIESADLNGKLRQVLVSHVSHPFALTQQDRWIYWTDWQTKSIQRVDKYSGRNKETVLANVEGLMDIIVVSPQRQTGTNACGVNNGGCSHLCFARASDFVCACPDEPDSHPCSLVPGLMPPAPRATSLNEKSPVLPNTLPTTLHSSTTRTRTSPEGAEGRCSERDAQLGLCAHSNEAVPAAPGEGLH

Experiments:
[1] = target: T1, Flag-tagged Wnt11 (UniProt P48615); assay: pull-down; solution binding assay: Flag-Wnts immobilised on beads, incubated with the Myc-tagged soluble ectodomain protein; bound proteins resolved by SDS-PAGE and blotted with anti-Myc and anti-Flag
T1 sequence: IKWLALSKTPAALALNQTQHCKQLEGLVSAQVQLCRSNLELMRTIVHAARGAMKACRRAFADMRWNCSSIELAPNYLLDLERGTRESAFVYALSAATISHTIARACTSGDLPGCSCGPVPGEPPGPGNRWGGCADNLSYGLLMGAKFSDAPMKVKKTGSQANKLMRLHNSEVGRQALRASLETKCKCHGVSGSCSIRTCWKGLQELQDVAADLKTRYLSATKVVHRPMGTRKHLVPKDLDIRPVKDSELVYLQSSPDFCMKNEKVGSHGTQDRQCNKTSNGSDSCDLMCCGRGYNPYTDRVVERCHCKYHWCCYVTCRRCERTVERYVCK

[2] = target: T2, Flag-tagged Wnt7a (UniProt P24383); assay: as above
T2 sequence: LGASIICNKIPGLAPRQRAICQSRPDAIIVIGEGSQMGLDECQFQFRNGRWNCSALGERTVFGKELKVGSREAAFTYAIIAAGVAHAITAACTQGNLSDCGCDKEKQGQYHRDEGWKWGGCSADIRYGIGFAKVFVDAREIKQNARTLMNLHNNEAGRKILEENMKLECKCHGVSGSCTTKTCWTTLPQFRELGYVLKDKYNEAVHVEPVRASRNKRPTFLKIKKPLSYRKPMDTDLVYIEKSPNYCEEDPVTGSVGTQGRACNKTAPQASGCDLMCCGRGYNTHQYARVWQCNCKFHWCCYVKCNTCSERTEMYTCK

[3] = target: T3, Flag-tagged Wnt9a (UniProt Q8R5M2); assay: as above
T3 sequence: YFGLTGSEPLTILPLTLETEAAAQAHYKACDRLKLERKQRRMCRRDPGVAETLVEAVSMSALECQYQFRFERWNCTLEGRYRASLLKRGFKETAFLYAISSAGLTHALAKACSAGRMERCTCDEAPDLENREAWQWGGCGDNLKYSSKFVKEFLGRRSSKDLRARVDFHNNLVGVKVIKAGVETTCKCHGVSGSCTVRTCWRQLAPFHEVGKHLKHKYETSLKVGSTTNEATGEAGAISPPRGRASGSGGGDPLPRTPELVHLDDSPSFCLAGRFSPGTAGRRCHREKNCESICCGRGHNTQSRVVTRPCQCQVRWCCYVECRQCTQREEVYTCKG

[4] = target: T1, Flag-tagged Wnt11; assay: as above; remark: listed apart in the source
[5] = target: T2, Flag-tagged Wnt7a; assay: as above; remark: listed apart in the source
[6] = target: T3, Flag-tagged Wnt9a; assay: as above; remark: listed apart in the source
[7] = target: MuSK (Flag-MuSK and MuSK-Myc) (UniProt Q61006); assay: co-IP; Flag-MuSK and MuSK-Myc co-transfected into C2C12 myoblasts; resulting myotubes treated 1 h with control medium, agrin, Wnt9a or Wnt11; lysates precipitated with anti-Flag, blotted with anti-Myc

binding [1]: binds
binding [2]: no binding
binding [3]: binds
Molecule: LRP4N-Myc, a Myc-tagged recombinant protein containing the extracellular domain of LRP4 (from UniProt Q9QYP1 21-1723) (domain or fragment)

binding [4]: binds
binding [5]: no binding
binding [6]: binds
B1: MuSKect-Myc, a secreted form of MuSK's extracellular domain fused with Myc (domain or fragment, UniProt Q61006 22-494)
chain: EKLPKAPVITTPLETVDALVEEVATFMCAVESYPQPEISWTRNKILIKLFDTRYSIRENGQLLTILSVEDSDDGIYCCIANNGVGGAVESCGALQVKMKPKITRPPINVKIIEGLKAVLPCTTMGNPKPSVSWIKGDNALRENSRIAVLESGSLRIHNVQKEDAGQYRCVAKNSLGTAYSKLVKLEVEVFARILRAPESHNVTFGSFVTLRCTAIGIPVPTISWIENGNAVSSGSIQESVKDRVIDSRLQLFITKPGLYTCIATNKHGEKFSTAKAAATVSIAEWSKSQKDSQGYCAQYRGEVCDAVLAKDALVFFNTSYRDPEDAQELLIHTAWNELKAVSPLCRPAAEALLCNHLFQECSPGVVPTPMPICREYCLAVKELFCAKEWQAMEGKAHRGLYRSGMHLLPVPECSKLPSMHRDPTACTRLPYLDYKKENITTFPSITSSRPSADIPNLPASTSSFAVSPAYSMT

binding [7]: binds
B2: MuSK (Flag-MuSK and MuSK-Myc) (receptor, UniProt Q61006 22-868)
chain: EKLPKAPVITTPLETVDALVEEVATFMCAVESYPQPEISWTRNKILIKLFDTRYSIRENGQLLTILSVEDSDDGIYCCIANNGVGGAVESCGALQVKMKPKITRPPINVKIIEGLKAVLPCTTMGNPKPSVSWIKGDNALRENSRIAVLESGSLRIHNVQKEDAGQYRCVAKNSLGTAYSKLVKLEVEVFARILRAPESHNVTFGSFVTLRCTAIGIPVPTISWIENGNAVSSGSIQESVKDRVIDSRLQLFITKPGLYTCIATNKHGEKFSTAKAAATVSIAEWSKSQKDSQGYCAQYRGEVCDAVLAKDALVFFNTSYRDPEDAQELLIHTAWNELKAVSPLCRPAAEALLCNHLFQECSPGVVPTPMPICREYCLAVKELFCAKEWQAMEGKAHRGLYRSGMHLLPVPECSKLPSMHRDPTACTRLPYLDYKKENITTFPSITSSRPSADIPNLPASTSSFAVSPAYSMTVIISIVSSFALFALLTIATLYCCRRRKEWKNKKRESTAVTLTTLPSELLLDRLHPNPMYQRMPLLLNPKLLSLEYPRNNIEYVRDIGEGAFGRVFQARAPGLLPYEPFTMVAVKMLKEEASADMQADFQREAALMAEFDNPNIVKLLGVCAVGKPMCLLFEYMAYGDLNEFLRSMSPHTVCSLSHSDLSTRARVSSPGPPPLSCAEQLCIARQVAAGMAYLSERKFVHRDLATRNCLVGETMVVKIADFGLSRNIYSADYYKADGNDAIPIRWMPPESIFYNRYTTESDVWAYGVVLWEIFSYGLQPYYGMAHEEVIYYVRDGNILACPENCPLELYNLMRLCWSKLPADRPSFCSIHRILQRMCERAEGTVGV
